Data from the supplement of paper PMC8728848.
Some of the results follow.

What was measured:
Experiment in all cases: glycan array binding signal (z-score within array); higher = stronger binding
Conditions in all cases: glycan notation: IUPAC condensed, linker removed
[1] = molecular target: Neu5Ac(a2-3)Gal(b1-3)GalNAc
In short: (§1)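 From the Consortium for Functional Glycomics database, 3228 arrays were curated, keeping only those whose protein sequence was available. Binding is given as a within-array Z-score averaged across arrays sharing a protein sequence and across linkers. Negative Z-scores can be read as non-binding.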

[2] = molecular target: Neu5Ac(a2-3)Gal(b1-3)GalNAc(b1-3)Gal(a1-4)Gal(b1-4)Glc
In short: as §1

[3] = molecular target: Neu5Ac(a2-3)Gal(b1-3)GalNAc(b1-4)[Neu5Ac(a2-3)]Gal(b1-4)Glc
In short: as §1

[4] = molecular target: Neu5Ac(a2-3)Gal(b1-3)GalNAc(b1-4)[Neu5Ac(a2-8)Neu5Ac(a2-3)]Gal(b1-4)Glc
In short: as §1

[5] = molecular target: Neu5Ac(a2-3)Gal(b1-3)GalNAc6S
In short: as §1

[6] = molecular target: Neu5Ac(a2-3)Gal(b1-3)GlcNAc
In short: as §1

[7] = molecular target: Neu5Ac(a2-3)Gal(b1-3)GlcNAc(b1-2)Man
In short: as §1

[8] = molecular target: Neu5Ac(a2-3)Gal(b1-3)GlcNAc(b1-2)Man(a1-3)[GlcNAc(b1-4)][Neu5Ac(a2-3)Gal(b1-3)GlcNAc(b1-2)Man(a1-6)]Man(b1-4)GlcNAc(b1-4)GlcNAc
In short: as §1

[9] = molecular target: Neu5Ac(a2-3)Gal(b1-3)GlcNAc(b1-2)Man(a1-3)[Neu5Ac(a2-3)Gal(b1-3)GlcNAc(b1-2)Man(a1-6)]Man(b1-4)GlcNAc(b1-4)GlcNAc
In short: as §1

[10] = molecular target: Neu5Ac(a2-3)Gal(b1-3)GlcNAc(b1-3)Gal(b1-3)GlcNAc
In short: as §1

[11] = molecular target: Neu5Ac(a2-3)Gal(b1-3)GlcNAc(b1-3)Gal(b1-4)GlcNAc
In short: as §1

[12] = molecular target: Neu5Ac(a2-3)Gal(b1-3)GlcNAc(b1-3)GalNAc
In short: as §1

[13] = molecular target: Neu5Ac(a2-3)Gal(b1-3)GlcNAc(b1-4)Gal(b1-4)Glc
In short: as §1

[14] = molecular target: Neu5Ac(a2-3)Gal(b1-3)GlcNAc(b1-6)GalNAc
In short: as §1

[15] = molecular target: Neu5Ac(a2-3)Gal(b1-3)GlcNAc6S
In short: as §1

[16] = molecular target: Neu5Ac(a2-3)Gal(b1-3)[Fuc(a1-4)]GlcNAc
In short: as §1

[17] = molecular target: Neu5Ac(a2-3)Gal(b1-3)[Fuc(a1-4)]GlcNAc(b1-3)Gal(b1-3)[Fuc(a1-4)]GlcNAc
In short: as §1

[18] = molecular target: Neu5Ac(a2-3)Gal(b1-3)[Fuc(a1-4)]GlcNAc(b1-3)Gal(b1-4)[Fuc(a1-3)]GlcNAc
In short: as §1

[19] = molecular target: Neu5Ac(a2-3)Gal(b1-3)[GlcNAc(b1-6)]GalNAc
In short: as §1

[20] = molecular target: Neu5Ac(a2-3)Gal(b1-3)[Neu5Ac(a2-6)]GalNAc
In short: as §1

[21] = molecular target: Neu5Ac(a2-3)Gal(b1-3)[Neu5Ac(a2-6)]GlcNAc(b1-3)[Fuc(a1-3)[Gal(b1-4)]GlcNAc(b1-6)]Gal(b1-4)Glc
In short: as §1

[22] = molecular target: Neu5Ac(a2-3)Gal(b1-3)]Neu5Ac(a2-3)Gal(b1-4)]GlcNAc
In short: as §1

Neu5Ac(a2-3)Gal(b1-4)Glc = molecular target: Neu5Ac(a2-3)Gal(b1-4)Glc
In short: as §1

[23] = molecular target: Neu5Ac(a2-3)Gal(b1-4)GlcNAc
In short: as §1

[24] = molecular target: Neu5Ac(a2-3)Gal(b1-4)GlcNAc(b1-2)Man
In short: as §1

[25] = molecular target: Neu5Ac(a2-3)Gal(b1-4)GlcNAc(b1-2)Man(a1-3)[GlcNAc(b1-4)][Neu5Ac(a2-3)Gal(b1-4)GlcNAc(b1-2)Man(a1-6)]Man(b1-4)GlcNAc(b1-4)GlcNAc
In short: as §1

[26] = molecular target: Neu5Ac(a2-3)Gal(b1-4)GlcNAc(b1-2)Man(a1-3)[Neu5Ac(a2-3)Gal(b1-4)GlcNAc(b1-2)Man(a1-6)]Man(b1-4)GlcNAc(b1-4)GlcNAc
In short: as §1

[27] = molecular target: Neu5Ac(a2-3)Gal(b1-4)GlcNAc(b1-2)Man(a1-3)[Neu5Ac(a2-3)Gal(b1-4)GlcNAc(b1-2)Man(a1-6)]Man(b1-4)GlcNAc(b1-4)[Fuc(a1-6)]GlcNAc
In short: as §1

[28] = molecular target: Neu5Ac(a2-3)Gal(b1-4)GlcNAc(b1-2)Man(a1-3)[Neu5Ac(a2-6)Gal(b1-4)GlcNAc(b1-2)Man(a1-6)]Man(b1-4)GlcNAc(b1-4)GlcNAc
In short: as §1

[29] = molecular target: Neu5Ac(a2-3)Gal(b1-4)GlcNAc(b1-2)[Neu5Ac(a2-3)Gal(b1-4)GlcNAc(b1-4)]Man(a1-3)[GlcNAc(b1-4)][Neu5Ac(a2-3)Gal(b1-4)GlcNAc(b1-2)[Neu5Ac(a2-3)Gal(b1-4)GlcNAc(b1-6)]Man(a1-6)]Man(b1-4)GlcNAc(b1-4)GlcNAc
In short: as §1

[30] = molecular target: Neu5Ac(a2-3)Gal(b1-4)GlcNAc(b1-2)[Neu5Ac(a2-3)Gal(b1-4)GlcNAc(b1-4)]Man(a1-3)[GlcNAc(b1-4)][Neu5Ac(a2-3)Gal(b1-4)GlcNAc(b1-4)Man(a1-6)]Man(b1-4)GlcNAc(b1-4)GlcNAc
In short: as §1

[31] = molecular target: Neu5Ac(a2-3)Gal(b1-4)GlcNAc(b1-2)[Neu5Ac(a2-3)Gal(b1-4)GlcNAc(b1-6)]Man(a1-6)[Neu5Ac(a2-3)Gal(b1-4)GlcNAc(b1-2)Man(a1-3)]Man(b1-4)GlcNAc(b1-4)GlcNAc
In short: as §1

[32] = molecular target: Neu5Ac(a2-3)Gal(b1-4)GlcNAc(b1-2)[Neu5Ac(a2-3)Gal(b1-4)GlcNAc(b1-6)]Man(a1-6)[Neu5Ac(a2-3)Gal(b1-4)GlcNAc(b1-2)Man(a1-3)][GlcNAc(b1-4)]Man(b1-4)GlcNAc(b1-4)GlcNAc
In short: as §1

[33] = molecular target: Neu5Ac(a2-3)Gal(b1-4)GlcNAc(b1-3)Gal
In short: as §1

[34] = molecular target: Neu5Ac(a2-3)Gal(b1-4)GlcNAc(b1-3)Gal(b1-3)GlcNAc
In short: as §1

[35] = molecular target: Neu5Ac(a2-3)Gal(b1-4)GlcNAc(b1-3)Gal(b1-4)GlcNAc
In short: as §1

[36] = molecular target: Neu5Ac(a2-3)Gal(b1-4)GlcNAc(b1-3)Gal(b1-4)GlcNAc(b1-2)Man(a1-3)[Neu5Ac(a2-3)Gal(b1-4)GlcNAc(b1-3)Gal(b1-4)GlcNAc(b1-2)Man(a1-6)]Man(b1-4)GlcNAc(b1-4)GlcNAc
In short: as §1

[37] = molecular target: Neu5Ac(a2-3)Gal(b1-4)GlcNAc(b1-3)Gal(b1-4)GlcNAc(b1-3)Gal(b1-4)GlcNAc
In short: as §1

[38] = molecular target: Neu5Ac(a2-3)Gal(b1-4)GlcNAc(b1-3)Gal(b1-4)GlcNAc(b1-3)Gal(b1-4)GlcNAc(b1-2)Man(a1-3)[Neu5Ac(a2-3)Gal(b1-4)GlcNAc(b1-3)Gal(b1-4)GlcNAc(b1-3)Gal(b1-4)GlcNAc(b1-2)Man(a1-6)]GalNAc
In short: as §1

[39] = molecular target: Neu5Ac(a2-3)Gal(b1-4)GlcNAc(b1-3)Gal(b1-4)GlcNAc(b1-3)GalNAc
In short: as §1

[40] = molecular target: Neu5Ac(a2-3)Gal(b1-4)GlcNAc(b1-3)Gal(b1-4)GlcNAc(b1-3)[Neu5Ac(a2-3)Gal(b1-4)GlcNAc(b1-3)Gal(b1-4)GlcNAc(b1-6)]GalNAc
In short: as §1

[41] = molecular target: Neu5Ac(a2-3)Gal(b1-4)GlcNAc(b1-3)Gal(b1-4)GlcNAc(b1-6)[Gal(b1-3)]GalNAc
In short: as §1

[42] = molecular target: Neu5Ac(a2-3)Gal(b1-4)GlcNAc(b1-3)Gal(b1-4)[Fuc(a1-3)]GlcNAc
In short: as §1

[43] = molecular target: Neu5Ac(a2-3)Gal(b1-4)GlcNAc(b1-3)GalNAc
In short: as §1

[44] = molecular target: Neu5Ac(a2-3)Gal(b1-4)GlcNAc(b1-3)[Neu5Ac(a2-3)Gal(b1-4)GlcNAc(b1-6)]GalNAc
In short: as §1

B1: Cohesin-mDC-ASGPR (Macaca mulatta) (protein)
chain: LDITSHHHHHHDDLDAVRIKVDTVNAKPGDTVRIPVRFSGIPSKGIANCDFVYSYDPNVLEIIEIEPGDIIVDPNPDKSFDTAVYPDRKIIVFLFAEDSGTGAYAITKDGVFATIVAKVKEGAPNGLSVIKFVEVGGFANNDLVEQKTQFFDGGVNVGDTTEPATPTTPVTTPTTTDDLDAASSQNSKFQRDLVTLRTDFSNFTSNTVAEIQALTSQGSSVEEMIASLKAEVEVIKQEQQAVHSEMLLRVQRLMQDLNKLTCQVATLKNNASTERTCCPVNWVEHQDSCYWFSRSGMPWAEAEKHCQLENAHLVVINSREEQNFVQEHLSFAYTWMGLSDREGAWKWVDGTDYETGFQNWKPGQPDDWQGHGLGGGEDCAHFHPDGRWNDDVCQRPYYWVCEAGLTQASQESH
glycan array binding signal (z-score) [1]: -0.406 | glycan array binding signal (z-score) [2]: -0.36 | glycan array binding signal (z-score) [3]: -0.356 | glycan array binding signal (z-score) [4]: -0.113 | glycan array binding signal (z-score) [5]: -0.315 | glycan array binding signal (z-score) [6]: -0.412 | glycan array binding signal (z-score) [7]: -0.342 | glycan array binding signal (z-score) [8]: -0.427 | glycan array binding signal (z-score) [9]: -0.354 | glycan array binding signal (z-score) [10]: -0.384 | glycan array binding signal (z-score) [11]: -0.42 | glycan array binding signal (z-score) [12]: -0.387 | glycan array binding signal (z-score) [13]: -0.361 | glycan array binding signal (z-score) [14]: 3.56 | glycan array binding signal (z-score) [15]: -0.414 | glycan array binding signal (z-score) [16]: -0.427 | glycan array binding signal (z-score) [17]: 0.055 | glycan array binding signal (z-score) [18]: -0.183 | glycan array binding signal (z-score) [19]: -0.417 | glycan array binding signal (z-score) [20]: 0.501 | glycan array binding signal (z-score) [21]: -0.432 | glycan array binding signal (z-score) [22]: -0.382 | glycan array binding signal (z-score) (Neu5Ac(a2-3)Gal(b1-4)Glc): -0.41 | glycan array binding signal (z-score) [23]: -0.418 | glycan array binding signal (z-score) [24]: 0.066 | glycan array binding signal (z-score) [25]: -0.424 | glycan array binding signal (z-score) [26]: -0.433 | glycan array binding signal (z-score) [27]: -0.411 | glycan array binding signal (z-score) [28]: -0.423 | glycan array binding signal (z-score) [29]: -0.407 | glycan array binding signal (z-score) [30]: -0.403 | glycan array binding signal (z-score) [31]: -0.215 | glycan array binding signal (z-score) [32]: -0.432 | glycan array binding signal (z-score) [33]: -0.413 | glycan array binding signal (z-score) [34]: -0.419 | glycan array binding signal (z-score) [35]: -0.422 | glycan array binding signal (z-score) [36]: -0.366 | glycan array binding signal (z-score) [37]: -0.424 | glycan array binding signal (z-score) [38]: -0.248 | glycan array binding signal (z-score) [39]: -0.413 | glycan array binding signal (z-score) [40]: -0.371 | glycan array binding signal (z-score) [41]: -0.399 | glycan array binding signal (z-score) [42]: -0.43 | glycan array binding signal (z-score) [43]: -0.418 | glycan array binding signal (z-score) [44]: -0.419
